This is one part of the list.
Test system: HSkMC (human skeletal muscle cells)
Assay: cytotoxicity call (relative viability < 0.9)
Details: 10 µM

Row | SMILES | cytotoxicity call
1 | Cn1nnc2c1[C@H](COCC1CC1)CNC2 | inactive
2 | C[C@@H]1CN([C@H](C)CO)C(=O)Cc2cc(NC(=O)Cc3ccccc3)ccc2O[C@@H]1CN(C)S(=O)(=O)c1ccc(F)cc1 | inactive
3 | CNC(=O)c1ccc(N)cc1 | inactive
4 | CN1C(=O)c2cc(NS(=O)(=O)c3ccc(F)cc3)ccc2OC[C@@H]2O[C@@H](CC(=O)NCC(F)(F)F)CC[C@H]21 | inactive
5 | CC(O)C1C(=O)N2C(C(=O)[O-])=C(SC3Cn4cnc[n+]4C3)C(C)C12 (stereo not drawn) | inactive
6 | C[C@@H]1CN([C@H](C)CO)C(=O)c2cccc(NC(=O)Nc3ccc4c(c3)OCO4)c2O[C@H]1CN(C)Cc1ccc(C(F)(F)F)cc1 | inactive
7 | Cc1ccc(S(=O)(=O)Nc2cccc3c2O[C@@H](CN(C)S(=O)(=O)c2ccccc2)[C@H](C)CN([C@H](C)CO)C3=O)cc1 | inactive
8 | CC(C)NC(=O)N(C)C[C@H]1Oc2c(NS(=O)(=O)c3ccc(F)cc3)cccc2C(=O)N([C@@H](C)CO)C[C@H]1C | inactive
9 | CCN1C(=O)[C@H]2[C@H](O)CS[C@H]2C1=O | inactive
10 | C[C@H]1CN([C@@H](C)CO)S(=O)(=O)c2ccc(C3=CCCC3)cc2O[C@H]1CN(C)S(=O)(=O)c1ccc(F)cc1 | inactive
11 | C[C@H](CO)N1C[C@H](C)[C@@H](CN(C)C(=O)CN2CCOCC2)Oc2ncc(C#CCN(C)C)cc2C1=O | inactive
12 | C[C@H]1CC[C@@H]2N(C1)C[C@@H]1[C@H]([C@@H](O)[C@H](O)[C@]3(O)[C@H]1C[C@@]14O[C@]5(O)[C@@H](C[C@@H](O)[C@@H]31)[C@]4(C)CC[C@@H]5O)[C@]2(C)O | inactive
13 | C[C@H](CO)N1C[C@H](C)[C@H](CN(C)Cc2ccc(Cl)c(Cl)c2)Oc2ccc(NC(=O)Cc3cn(C)c4ccccc34)cc2CC1=O | inactive
14 | Cc1cc(=O)n2nc(S(C)(=O)=O)nc2[nH]1 | inactive
15 | COCC(=O)N1CC[C@]2(CC1)CN(Cc1ccc3c(c1)OCO3)[C@H](CO)c1c2c2ccc(cc2n1C)OC | inactive
16 | CCNC(=O)C[C@@H]1CC[C@@H](NC(=O)C2CCOCC2)[C@@H](CO)O1 | inactive
17 | COc1ccc(CN(C)C[C@@H]2OCCCC[C@@H](C)Oc3ccc(NC(=O)Nc4ccccc4)cc3C(=O)N([C@H](C)CO)C[C@@H]2C)cc1 | inactive

Row | SMILES | cytotoxicity call
18 | Cc1cc(C(=O)Nc2cccc3c2O[C@@H](CN(C)Cc2ccc(C(=O)O)cc2)[C@H](C)CN([C@H](C)CO)C3=O)n(C)n1 | inactive
19 | CCN(CC)CCNC(=O)c1ccc(N)cc1.Cl | inactive
20 | COc1ccc(CN(C)C[C@H]2OCCCC[C@@H](C)Oc3ccc(NS(=O)(=O)c4c(C)noc4C)cc3C(=O)N([C@@H](C)CO)C[C@H]2C)cc1 | inactive
21 | C[C@@H]1CCCCO[C@@H](CN(C)C(=O)CCCN(C)C)[C@H](C)CN([C@@H](C)CO)C(=O)c2cc(N(C)C)ccc2O1 | inactive
22 | C[C@@H]1CCCCO[C@H](CN(C)C(=O)c2ccccc2)[C@H](C)CN([C@@H](C)CO)C(=O)c2cc(NS(=O)(=O)c3ccccc3)ccc2O1 | inactive
23 | COc1ccc2c3c(n(c2c1)C)[C@H](CO)N(C[C@]13CN(C1)C(=O)Cc1ccccc1)C(=O)c1ccccn1 | inactive
24 | CNC(=O)Cn1c(=O)c2c(OC)c(C)cnc2n(C)c1=O | inactive
25 | NC(=O)CSc1nnnn1-c1ccccc1 | inactive
26 | C[C@@H]1CN([C@H](C)CO)C(=O)c2cccc(NC(=O)c3ccncc3)c2O[C@@H]1CN(C)S(=O)(=O)c1ccccc1 | inactive
27 | C/C(C[P+](c1ccccc1)(c1ccccc1)c1ccccc1)=N\NC(=O)CCCCCCC(=O)Nc1ccccc1O | inactive
28 | Cc1ccc(S(=O)(=O)N(C)C[C@H]2Oc3c(NC(=O)c4ccncc4)cccc3C(=O)N([C@@H](C)CO)C[C@@H]2C)cc1 | inactive
29 | Cc1ccc(S(=O)(=O)Nc2ccc3c(c2)C(=O)N([C@@H](C)CO)C[C@H](C)[C@@H](CN(C)C(=O)Nc2cccc4ccccc24)O3)cc1 | inactive
30 | COc1ccc([C@@H]([C@H](Cc2ccccc2)OC(C)=O)N2C[C@@H](NC(=O)C(Cl)(Cl)Cl)[C@@H]3[C@H]([C@@H]2Cc2ccccc2)N(C)O[C@H]3c2ccccc2)cc1 | inactive
31 | CC(O)(P(=O)(O)O)P(=O)(O)O | inactive
32 | NCC[C@@H]1CC[C@H](NC(=O)C2CC2)[C@@H](CO)O1 | inactive
33 | O=C(C1=C[C@@H](c2ccc(Br)cc2)C[C@@H](OCc2ccc(CO)cc2)O1)N1CCCCCCC1 | inactive

— the antibiotic and cytotoxicity screens of Wong et al. (2023)
